# Where “and” joins values, the source holds several entries; their conditions need not be identical. Equal entries are not always repeated. Hit rate of the full screen: of about 110,000 compounds, about 230 (0.21%) showed an effect of 50% or more. The list shows a part of the results.
# Biological target: DPAP1 (Plasmodium falciparum, UniProt Q8IIJ9)
# Test: primary screen, percent inhibition; read by cleavage of a fluorogenic dipeptide substrate; higher = more effect of the substance
# Set-up: species or system P. falciparum D10 trophozoite lysates; single well
# 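Further: 30 min substrate incubation versus DMSO and 10 µM JCP410 controls.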
# Chain of DPAP1 (Q8IIJ9 whole entry, looked up): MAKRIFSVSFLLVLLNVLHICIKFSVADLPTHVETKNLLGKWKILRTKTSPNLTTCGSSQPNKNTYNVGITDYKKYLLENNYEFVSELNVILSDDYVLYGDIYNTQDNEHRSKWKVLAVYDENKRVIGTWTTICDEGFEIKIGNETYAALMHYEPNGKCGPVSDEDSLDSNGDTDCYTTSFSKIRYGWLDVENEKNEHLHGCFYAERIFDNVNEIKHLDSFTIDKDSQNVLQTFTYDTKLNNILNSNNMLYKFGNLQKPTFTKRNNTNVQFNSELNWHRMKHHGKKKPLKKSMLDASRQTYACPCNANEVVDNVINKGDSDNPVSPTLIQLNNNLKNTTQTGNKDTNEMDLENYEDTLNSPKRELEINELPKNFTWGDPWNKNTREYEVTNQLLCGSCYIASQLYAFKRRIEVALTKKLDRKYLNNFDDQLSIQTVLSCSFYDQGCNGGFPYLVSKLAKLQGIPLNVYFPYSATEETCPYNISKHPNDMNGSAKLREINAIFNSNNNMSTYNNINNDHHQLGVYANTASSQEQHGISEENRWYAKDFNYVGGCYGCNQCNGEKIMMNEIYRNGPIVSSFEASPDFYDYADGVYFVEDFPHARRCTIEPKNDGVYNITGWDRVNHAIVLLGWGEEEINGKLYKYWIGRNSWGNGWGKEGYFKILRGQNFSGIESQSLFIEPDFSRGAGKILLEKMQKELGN
row,SMILES,% Inhibition @ 10 uM
1,CC1(C)CC(=O)C2=C(C1)N(c1nc[nH]n1)C(N)=C(C#N)C2c1ccsc1 (stereo not drawn),-0.99%
2,O=C(O)CCCNC1=NC2(CCCC2)Cc2ccccc21,-7.14%
3,C=CCSc1nc(-c2ccccc2)ccc1C#N,6.56%
4,O=C(O)CC1C(=O)OCN1C(=O)OCc1ccccc1 (stereo not drawn),5.59%
5,CCCc1[nH]nc2c1C(c1c(OC)cccc1OC)C(C#N)=C(N)O2 (stereo not drawn),-0.988%
6,COc1ccccc1C1CC(=O)NC(SCC(=O)Nc2ccccc2)=C1C#N (stereo not drawn),2.69%
7,CC1=C(C#N)C(c2ccccc2C(F)(F)F)C2=C(O)CCCC2=N1 (stereo not drawn),1%
8,CC(C)C(NC(=O)CN(c1ccc2c(c1)OCCO2)S(=O)(=O)c1ccccc1)C(C)C,-0.872%
9,Cn1c(SCC(=O)NCCCN2CCOCC2)nc2ccccc2c1=O,3.93%
10,COc1ccc(-n2ncc3c2ncn2nc(-c4ccccc4Cl)nc32)cc1,-1.11%
11,N#CCNC(=O)C(Cc1cc(Cl)cc(Cl)c1)NC(=O)c1ccc(Cl)cc1 (stereo not drawn),17%
12,CCOc1ccc(C(=O)N(Cc2cccs2)C2CCS(=O)(=O)C2)cc1 (stereo not drawn),-4.18%
13,O=C(O)CCSc1ccc([N+](=O)[O-])cc1,-5.62%
14,C/C(=C\c1ccccc1)c1nc2c(=O)n(C)c(=O)nc-2n(C)n1,2.19%
15,N#CC1=C(N)Oc2cc(N)ccc2C1c1ccccc1F (stereo not drawn),0.687%
16,COc1ccc(-[n+]2cc(O)on2)cc1,1.72%
17,CC(C)NC(=O)c1sc2nc(-c3cccs3)cc(-c3ccc(F)cc3)c2c1N,-3.5%
18,O=C(CN1C(=O)c2ccccc2S1(=O)=O)NCCSCc1ccc(Cl)c(Cl)c1,5.01%
19,Cc1ccc(S(=O)(=O)N(CCC#N)C2CCCCC2)c2nsnc12,0.266%
20,CCC(C)NC(=O)c1cc(C2CC2)[nH]n1 (stereo not drawn),1.41%
21,Cc1nn(C)c(C)c1CN(C)S(=O)(=O)c1ccc2ccccc2c1,0.528%
22,Cn1c(=O)c2c(nc(NCCCn3ccnc3)n2Cc2ccc(F)cc2)n(C)c1=O,17.1%
23,O=C(CCNS(=O)(=O)c1ccc2nc(O)ccc2c1)NC1CCCc2ccccc21 (stereo not drawn),-2.26%
24,O=C(NCCSc1nnnn1-c1ccccc1)c1ccccc1,-2.85%
25,Cc1nnc(-c2cccc3ccccc23)o1,-0.216%
26,Cc1nc(S)c(C#N)c(C)c1C(=O)Nc1ccccc1,2.01%

row,SMILES,% Inhibition @ 10 uM
1,COc1ccccc1NC(=O)c1ccccc1F,-3.82%
2,COc1ccc(C(=O)Nc2cnc3ccccn3c2=O)cc1,-7.15%
3,COc1cc2c(cc1OC)CN(Cc1ccc3ccccc3c1)CC2,-1.98%
4,CC(=O)Nc1ccc(S(=O)(=O)Nc2cccc(NC(=O)C(C)(C)C)c2)cc1,-1.95%
5,O=C(NCc1ccco1)c1ccccc1Br,21.4%
6,CN(CCC#N)C(=O)c1cc2c(Cl)nc3ccccc3c2s1,1.94%
7,COc1ccc2c(Sc3ccc(Cl)cc3)c(C(=O)NCCCN3CCN(C)CC3)[nH]c2c1,-3.76%
8,Cc1ccc(F)cc1NC(=O)CSc1ccc(Cl)cc1,-2.64%
9,O=S(=O)(NCc1csc(-c2cccnc2)n1)c1ccc2c(c1)OCCO2,-2.45%
10,CC1CCC(C)N(C(=O)c2cc3n(n2)C(C(F)(F)F)CC(c2ccccc2)N3)C1 (stereo not drawn),-3.83%
11,COc1cc(C2C=C(c3ccc(Cl)cc3)Nc3nnnn32)cc(OC)c1OC (stereo not drawn),3.32%
12,Cc1nn(-c2ccccc2)c(-n2cccc2)c1C(=O)NC1CC1,0.137%
13,CCN(CC)CC#CC(O)(C(C)C)C(C)C,-0.771%
14,COc1ccc2c(c1)CCc1sc(NC(=O)c3cc(Cl)ccc3OC)nc1-2,-3.64%
15,CC(c1ccccc1)N1CC(O)C1 (stereo not drawn),-3.38%
16,CC1CCCN(C(=O)C2c3ccccc3C(=O)N(C)C2c2c[nH]c3ccccc23)C1 (stereo not drawn),-1.92%
17,CCCCOc1ccccc1C1C(C(=O)OCC)=CN(C)C=C1C(=O)OCC,6.48%
18,COc1ccc(-n2nnc3c(=O)n(CC(=O)NCc4ccc(F)cc4)cnc32)cc1,-2.16%
19,CN1CCC(N(C)Cc2cccc(F)c2)CC1,-3.65%
20,CC1CCc2c(sc3c2CSC(C(=O)NC2CC2)=C3)C1 (stereo not drawn),4.48%
21,O=C(CCn1cccn1)NC1CCCCCC1,-4.17%
22,Cc1ccc(C(=O)c2sc3nc(-c4cccnc4)ccc3c2N)cc1,-0.261%
23,CCOC(=O)c1c(/N=C/N(C)C)c(C#N)c2n1CCC2,2.17% and 0.0345%
24,COc1ccccc1NC(=O)C1=C(C)N=C2CCCC(O)=C2C1c1cccc(F)c1 (stereo not drawn),-2.64%
25,COc1ccccc1C(C)CC(NC(=O)OCc1ccccc1)C(=O)NCC#N (stereo not drawn),1.35%
26,Cc1cccn2c(=O)c3cc(C(N)=S)c(=N)n(CCc4ccccc4)c3nc12,5.17%

row,SMILES,% Inhibition @ 10 uM
1,N=C(NOC(=O)c1ccc(Br)o1)c1ccccn1,2.25%
2,CCN1CCN(C(=O)COc2ccc(S(=O)(=O)NC3CCCC3)cc2)CC1,1.94%
3,Cc1ccc(C(=O)Nc2nc(-c3nnn(-c4cc(C)ccc4C)c3C)ns2)cc1,-12.9%
4,c1coc(CNc2nc3ccccc3n2CCN2CCCCC2)c1,0.843%
5,CC1(C)C(=O)C(C)(C)C12SC[C@H]1C(=O)N(c3ccccc3)C(=O)[C@H]12,-1.12%
6,O=C1OC(c2cccc(Cl)c2)=N/C1=C\c1ccco1,1.25%
7,Cn1ncc(Cl)c(Oc2ccc(Cl)cc2)c1=O,0.526%
8,CCN1CCCC(NC(=O)c2cc(NC)ccc2OC)C1 (stereo not drawn),-4.12%
9,Cc1cc(C)n2nc(CNC(=O)c3cccc(F)c3)nc2n1,2.84%
10,Cn1c(=O)c2c(nc(CN(Cc3ccccc3)Cc3ccccc3)n2Cc2ccccc2)n(C)c1=O,-2.29%
11,COC(=O)c1sc(N2C(=O)C(O)=C(C(=O)c3ccc(OC)c(C)c3)C2c2ccc(O)cc2)nc1C (stereo not drawn),4.85%
12,CCCC(=O)Nc1ccc(Cl)c(NC(=O)c2cccnc2Cl)c1,16.8%
13,C=CCOc1c(CNc2nccs2)cccc1OCC,2.02%
14,O=C(Nc1ccc(F)cc1F)c1ccc(Cl)cc1,-2.36%
15,CCN(CCN(C)C)Cc1ccc(F)cc1,2.7%
16,CC(NC(=O)c1ccccc1)c1nc2ccccc2n1C(C)C (stereo not drawn),12.1%
17,COc1ccc(CC(=O)Nc2cc(OC)c(OC)cc2C(=O)O)cc1,-3.34%
18,O=C1NC(=O)N(c2ccc(Br)cc2)C(=O)/C1=C\NCCc1c[nH]c2ccccc12,2.45%
19,COc1ccc(C2C(C(=O)N3CCN(C)CC3)c3ccccc3C(=O)N2Cc2ccc(F)cc2)cc1 (stereo not drawn),7.99%
20,Cc1cccc(C(=O)O/N=C(\N)c2ccccn2)c1,4.06%
21,CCOC(=O)C1CCCN(CCc2ccccc2)C1 (stereo not drawn),-0.817%
22,C=CCOc1ccc(/C=C2\SC(N)=NC2=O)cc1OC,0.997%
23,Cc1cccc(N2CC(C(=O)Nc3ccc(Cl)c(Cl)c3)CC2=O)c1C (stereo not drawn),-0.992%
24,CN(c1ccccc1)S(=O)(=O)c1cc(Cl)ccc1Cl,5.43%
25,O=C(CN1C(=O)S/C(=C/c2ccc(F)cc2)C1=O)Nc1nccs1,-4.43%
26,CCOc1ccccc1NC(=O)c1c(Br)cnn1C,-2.74%

row,SMILES,% Inhibition @ 10 uM
1,CC(C)Oc1ccc(CC/N=C(\N)N=C(N)N)cc1Cl,-2.87%
2,COc1ccc(N(CC(=O)N2CCCCC2)S(=O)(=O)c2ccc(C)cc2)cc1Cl,-2.74%
3,Cc1c(C(=O)OC2CCC(C)CC2)[nH]c2c1C(=O)CCC2 (stereo not drawn),-0.0508%
4,O=C(O)C1CCCCC1C(=O)NCCC(c1ccccc1)c1ccccc1 (stereo not drawn),0.389%
5,Cc1ccc(/C=C(\NC(=O)c2ccc(Cl)cc2)C(=O)N2CC3CC(C2)c2cccc(=O)n2C3)o1 (stereo not drawn),1.76%
6,CCOc1ccc(-c2cnnn2-c2nonc2N)cc1OC,3.47%
7,Cc1cccc(-c2cc(C(=O)N3CCN(C)CC3)c3ccccc3n2)c1,1.64%
8,Cc1cc(C)nc(NC2=NC(=O)CC(C(=O)O)N2CCc2c[nH]c3ccccc23)n1 (stereo not drawn),2.46%
9,CCOc1ccccc1/C=C1/N=C(c2cccc3ccccc23)OC1=O,-0.597%
10,Cc1nc2c(c(C)nn2-c2ccccc2)c(C)c1CCC(=O)NCc1ccc2c(c1)OCO2,0.953%
11,COCCNC(=O)/C(C#N)=C/c1c(Oc2ccccc2)nc2c(C)cccn2c1=O,-3.23%
12,CCOc1ccc(-c2[nH]nc3c2C(c2ccccc2F)C(C#N)=C(N)O3)cc1OC (stereo not drawn),-6.59%
13,CCOC(=O)c1cnc2cc(C)nn2c1C,-3.74%
14,C/C=C/C(=O)Nc1cc(OC)c(Cl)cc1OC,1.41%
15,Cc1cccc(NC(=O)c2ccccc2Br)c1,1.55%
16,COc1ccccc1C(=O)Nc1cccc(Cl)c1,-2.21%
17,O=C(Cc1ccccc1)Nc1c2c(nc3c1CCC3)CCCC2,-2.65%
18,O=C(NCc1ccccc1)c1ccccc1NC(=O)C1CCCCC1C(=O)O (stereo not drawn),2.84%
19,COc1ccccc1N/C=C1/C(=O)NC(=O)N(c2cccc(C)c2)C1=O,-6.7%
20,Cc1cc(C)nc(NC(=O)c2ccc(Cl)cc2)c1,-5.6%
21,O=C(/C=C/c1ccco1)N(Cc1ccccc1)c1ccccn1,-3.12%
22,CCOC(=O)N1CCN(C(=O)CC(c2ccccc2)c2ccccc2)CC1,-1.84%
23,N#CC1=C(SCc2ccccc2)NC(=O)CC1c1ccc(O)cc1 (stereo not drawn),-2.35%
24,CCOc1ccc(C(=O)N2CCN(c3cccc(Cl)c3)CC2)cc1,-4.59%

# — PMC6919601, “Identification of Plasmodium dipeptidyl aminopeptidase allosteric inhibitors by high throughput screening” (PLoS ONE, 2019)
